Source: the supplement of paper PMC11417369
± gives the standard deviation of the averaged measurements. This is one part of the list.

These sequences were tested on PfAP2-EXP AP2 domain (GST-tagged) (assay: gcPBM binding intensity (ln(normalized median fluorescence intensity)); higher = stronger DNA binding).
Procedure, shortened: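 In this array assay, P. falciparum DNA-binding domains with a GST tag, expressed in E. coli, were applied for 1 h to primer-extended double-stranded 36-bp intergenic genomic probes and negative controls on an Agilent 4 × 180k array. Bound protein was visualised with Alexa488 anti-GST antibody at 488 nm. Binding intensity is the highest Masliner-normalised natural-log median intensity across replicate spots of either probe orientation.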

Which “gcPBM binding intensity (ln)” value does the source give for “AAGAAAAACATTACGTGTACCAAAAGGCCTGTCAAC [XGTACX_site267]” here?
The value was 9.01 ± 0.54.

With “AAAATGGGTTAGCACATACACACCAATATATTATAT [CACACA_site3082]” as the sequence, how does the “gcPBM binding intensity (ln)” value read?
Its value is 8.53 ± 0.67.

With “ATAATTATATAAATATATATAATATATATATGAAAA [XGTACX_negctrl_site357]” as the sequence, how does the “gcPBM binding intensity (ln)” value read?
Its value is 8.07 ± 0.48.

How did the “gcPBM binding intensity (ln)” value turn out when “TATAGATGTATGTACATACACACATATATAAATAAA [CACACA_site1789]” was run?
The value was 8.63 ± 0.35.

Which “gcPBM binding intensity (ln)” value does the source give for “TGTTAATTTATATTATGTACTTATAATTATCGTTTG [XGTACX_site1032]” here?
The value was 8.66 ± 0.22.

How did the “gcPBM binding intensity (ln)” value turn out when “GTTAATTGAAGATTCACACATAAATATATATATAAT [CACACA_site5482]” was run?
The value was 8.49 ± 0.5.

For “ATTGTATGCACGTCTGCACACTTTTTTTTTTTTTTT [CACACA_site2082]”, which “gcPBM binding intensity (ln)” value is on record?
Its value is 8.72 ± 0.24.

“TAACGCATGAATATAATATATATATATATAAAAATA [GTGCAC_negctrl_site218]” was tested. Which “gcPBM binding intensity (ln)” value did it give?
The value was 8.43 ± 0.57.

Which “gcPBM binding intensity (ln)” value does the source give for “ATAATTCTAAATAAATGTACACACAAAAATAAATGT [XGTACX_site3547]” here?
Its value is 8.76 ± 0.37.

Which “gcPBM binding intensity (ln)” value does the source give for “GTAAGATTTCTTGTTGCATGCGGTAAAAAGTAAAAT [TGCATGCA_site469]” here?
Its value is 9.68 ± 0.28.

Which “gcPBM binding intensity (ln)” value does the source give for “TAGATAAATGGGTATACACACATATACATAAATATA [CACACA_site375]” here?
Its value is 8.53 ± 0.35.

With “TACACCCACCAACACACACACACACCCAAAAAAAAA [CACACA_site498]” as the sequence, how does the “gcPBM binding intensity (ln)” value read?
Its value is 8.47 ± 0.38.

How did the “gcPBM binding intensity (ln)” value turn out when “TTTATGAAACAGTGCACACATAAAAATATATACATA [CACACA_site2992]” was run?
The value was 8.96 ± 0.13.

“TTTATATATTTATTCACACATATAATATTCCGTCGT [CACACA_site6120]” was tested. Which “gcPBM binding intensity (ln)” value did it give?
Its value is 8.62 ± 0.53.

Which “gcPBM binding intensity (ln)” value does the source give for “AACATACATAAACACACACACACACCCACACCCACA [CACACA_site8058]” here?
The value was 8.65 ± 0.65.

“AACTTTATACTTTTTTGTACTTAACCCTTACATTTT [XGTACX_site5798]” was tested. Which “gcPBM binding intensity (ln)” value did it give?
Its value is 9.03 ± 0.55.

How did the “gcPBM binding intensity (ln)” value turn out when “AATCTAATGTAATGCATACACACAACTATCCATCAA [CACACA_site535]” was run?
The value was 8.57 ± 0.32.

“TAAAATGAAGGAATATGTACATAAATAAACATATAT [XGTACX_site6266]” was tested. Which “gcPBM binding intensity (ln)” value did it give?
The value was 8.55 ± 0.057.

“AATATACGAAATTGTGCACACATATATTTATGTATG [CACACA_site1510]” was tested. Which “gcPBM binding intensity (ln)” value did it give?
Its value is 8.79 ± 0.099.

With “CGATATAAAGATATTAGTACATATGCATGCTTGTCT [XGTACX_site8629]” as the sequence, how does the “gcPBM binding intensity (ln)” value read?
Its value is 9.03 ± 0.16.

Which “gcPBM binding intensity (ln)” value does the source give for “CATATATGATATATTAGTACATATATATATATATAT [XGTACX_site1574]” here?
Its value is 10.1 ± 0.29.

How did the “gcPBM binding intensity (ln)” value turn out when “AAAAATAAAGTAAAAGCATGCTAGTATATGGAAAAT [TGCATGCA_site486]” was run?
The value was 9.32 ± 0.45.

How did the “gcPBM binding intensity (ln)” value turn out when “TTGAAATTAAATGACATACACACTATATTATATATT [CACACA_site3135]” was run?
Its value is 8.2 ± 0.38.

How did the “gcPBM binding intensity (ln)” value turn out when “AGGTATATATATTTATGTACTTAAAATGAGAAAATA [XGTACX_site8337]” was run?
The value was 8.73 ± 0.23.

How did the “gcPBM binding intensity (ln)” value turn out when “CATATACGCAAACACACACACATATATATATATATA [CACACA_site501]” was run?
Its value is 10.2 ± 0.4.

How did the “gcPBM binding intensity (ln)” value turn out when “TATAATAATATTTATTGTACAATTAGGTTAATTCAT [XGTACX_site1986]” was run?
Its value is 8.49 ± 0.33.

With “GCATTTTAATAATTATGTACATATATTATTCCTGGT [XGTACX_site3664]” as the sequence, how does the “gcPBM binding intensity (ln)” value read?
Its value is 8.93 ± 0.4.

“TTCCATCAAAAAATGGGTACACATTATAGAAATATT [XGTACX_site8482]” was tested. Which “gcPBM binding intensity (ln)” value did it give?
Its value is 8.68 ± 0.35.

“AAAACATACAGATATACACACATATATATATATATA [CACACA_site5091]” was tested. Which “gcPBM binding intensity (ln)” value did it give?
Its value is 10 ± 0.4.

How did the “gcPBM binding intensity (ln)” value turn out when “ATATAGATCTACACTGCACACATTTTTAACACTGCT [CACACA_site1882]” was run?
Its value is 8.78 ± 0.38.

With “ATATTTAAACGATGGTGTACATATATTACAAGTTGT [XGTACX_site1743]” as the sequence, how does the “gcPBM binding intensity (ln)” value read?
The value was 8.86 ± 0.35.

With “ACGCATGTAATTTATACACACATTCTTTTATATTTT [CACACA_site3708]” as the sequence, how does the “gcPBM binding intensity (ln)” value read?
The value was 8.7 ± 0.36.

How did the “gcPBM binding intensity (ln)” value turn out when “TATACATATATATATACACACATATATATATATACA [CACACA_site402]” was run?
Its value is 8.38 ± 0.3.

“AAATTATTATCGTTAATATGTATATATGTGCCAAGT [TGCATGCA_negctrl_site557]” was tested. Which “gcPBM binding intensity (ln)” value did it give?
The value was 8.68 ± 0.45.

For “TATAATATGAACAGTACACACAAAATAAATTCGTAT [CACACA_site3586]”, which “gcPBM binding intensity (ln)” value is on record?
The value was 8.58 ± 0.44.

For “ATTCAAAATAATAGAATTGTTAAAGTTGTAAATTGA [CACACA_negctrl_site727]”, which “gcPBM binding intensity (ln)” value is on record?
The value was 8.26 ± 0.43.

For “TATATTTTTATATTTTGTACATATAGTAAATATAAA [XGTACX_site4768]”, which “gcPBM binding intensity (ln)” value is on record?
Its value is 8.27 ± 0.27.

With “AAAAATAAATATACATGTACTTAAAATAATCGAATA [XGTACX_site8432]” as the sequence, how does the “gcPBM binding intensity (ln)” value read?
Its value is 8.72 ± 0.42.

“CTCAAACAATATTATATAATAAAGTACATATATATT [CACACA_negctrl_site446]” was tested. Which “gcPBM binding intensity (ln)” value did it give?
The value was 8.62 ± 0.42.

Which “gcPBM binding intensity (ln)” value does the source give for “GAACAGAAAAAGAATAGTACATATATATATATATAT [XGTACX_site3700]” here?
Its value is 10 ± 0.45.

How did the “gcPBM binding intensity (ln)” value turn out when “ACGTATCAAAAAATTTGTACATATATATATATATAT [XGTACX_site1024]” was run?
Its value is 10.1 ± 0.35.

“AAAAATATATAAAGAAAAAGAATATAATATAAAATA [GTGCAC_negctrl_site208]” was tested. Which “gcPBM binding intensity (ln)” value did it give?
Its value is 8.53 ± 0.38.

With “ATTGTAGAATTTAATAGTACTCACGAATAAAATAAA [XGTACX_site6280]” as the sequence, how does the “gcPBM binding intensity (ln)” value read?
Its value is 8.69 ± 0.3.

Which “gcPBM binding intensity (ln)” value does the source give for “GTTTATGTTAAACCATGTACTTAATATTTTATTCTT [XGTACX_site3761]” here?
The value was 8.64 ± 0.28.
